Experimental data from paper PMC13434659.
No constants are given. Whether binding was seen depends on the method and setting. In cells and extracts the contact can be indirect. Some binding calls cover weakened binding; strength is not graded here. For some of these results: Tags and fused reporters may be left off the sequences shown.

Tests used:
[1] = molecular target: T1, GST-tagged RASSF4 (human) (UniProt Q9H2L5); assay: pull-down; purified GST-tagged protein on glutathione beads incubated overnight at 4 °C with lysate of HEK cells over-expressing the Flag-tagged protein; washes in 50 mM Tris/HCl pH 7.5, 150 mM NaCl, 1 mM EDTA, 0.5% Nonidet P-40; Western blot; only the target purified
T1 sequence: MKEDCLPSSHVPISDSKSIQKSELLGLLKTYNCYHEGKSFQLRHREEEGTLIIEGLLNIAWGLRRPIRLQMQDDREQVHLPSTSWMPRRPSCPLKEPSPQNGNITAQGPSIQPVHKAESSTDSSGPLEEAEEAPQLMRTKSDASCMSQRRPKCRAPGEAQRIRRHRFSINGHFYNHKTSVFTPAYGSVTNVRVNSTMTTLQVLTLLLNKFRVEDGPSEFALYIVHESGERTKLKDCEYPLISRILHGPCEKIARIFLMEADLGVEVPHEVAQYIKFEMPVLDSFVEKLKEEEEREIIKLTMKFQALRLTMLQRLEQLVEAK

[2] = molecular target: T2, GST-RASSF4 truncation protein M1-P156 (human) (UniProt Q9H2L5); assay: as above
T2 sequence: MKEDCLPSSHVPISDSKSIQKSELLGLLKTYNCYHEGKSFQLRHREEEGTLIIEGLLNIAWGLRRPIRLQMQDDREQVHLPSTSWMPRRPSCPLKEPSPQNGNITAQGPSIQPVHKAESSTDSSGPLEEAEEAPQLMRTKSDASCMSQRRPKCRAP

[3] = molecular target: T3, endogenous PKD2 of mouse kidney (mouse (endogenous in C57BL/6 kidney)) (UniProt O35245); assay: co-IP; kidney lysate of an 8-week-old C57BL/6 mouse, both proteins endogenous
T3 sequence: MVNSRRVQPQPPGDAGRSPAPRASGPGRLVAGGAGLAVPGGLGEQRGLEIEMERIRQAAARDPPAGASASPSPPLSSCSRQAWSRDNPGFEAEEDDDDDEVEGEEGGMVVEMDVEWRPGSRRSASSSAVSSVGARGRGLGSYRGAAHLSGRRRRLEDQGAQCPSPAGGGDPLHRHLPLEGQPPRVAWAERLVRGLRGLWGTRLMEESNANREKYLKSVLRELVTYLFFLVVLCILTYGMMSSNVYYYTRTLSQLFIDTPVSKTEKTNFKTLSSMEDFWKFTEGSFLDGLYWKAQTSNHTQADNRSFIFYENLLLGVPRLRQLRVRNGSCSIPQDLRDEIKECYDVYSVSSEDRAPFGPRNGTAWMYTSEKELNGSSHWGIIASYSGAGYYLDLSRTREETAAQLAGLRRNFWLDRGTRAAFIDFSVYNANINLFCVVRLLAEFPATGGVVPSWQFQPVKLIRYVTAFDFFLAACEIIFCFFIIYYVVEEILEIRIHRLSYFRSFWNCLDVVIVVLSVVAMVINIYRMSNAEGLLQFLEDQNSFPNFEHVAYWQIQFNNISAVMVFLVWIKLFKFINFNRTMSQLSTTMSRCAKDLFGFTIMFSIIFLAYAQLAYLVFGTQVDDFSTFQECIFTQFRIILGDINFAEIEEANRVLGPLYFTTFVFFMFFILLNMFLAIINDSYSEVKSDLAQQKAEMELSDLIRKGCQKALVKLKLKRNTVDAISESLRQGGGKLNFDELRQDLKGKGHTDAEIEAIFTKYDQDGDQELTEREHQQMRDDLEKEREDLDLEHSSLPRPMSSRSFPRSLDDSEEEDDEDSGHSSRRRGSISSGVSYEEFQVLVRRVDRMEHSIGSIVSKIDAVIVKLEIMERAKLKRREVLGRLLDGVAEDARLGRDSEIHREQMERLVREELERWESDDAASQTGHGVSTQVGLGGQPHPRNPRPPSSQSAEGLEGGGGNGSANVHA

[4] = molecular target: T4, VC-PKD2 (Venus C-terminal half fused to PKD2) (human) (UniProt Q13563); assay: split reporter; BiFC with Venus halves VN and VC fused to the N-terminal ends, transfected HEK cells, confocal microscopy 36-48 h after transfection
T4 sequence: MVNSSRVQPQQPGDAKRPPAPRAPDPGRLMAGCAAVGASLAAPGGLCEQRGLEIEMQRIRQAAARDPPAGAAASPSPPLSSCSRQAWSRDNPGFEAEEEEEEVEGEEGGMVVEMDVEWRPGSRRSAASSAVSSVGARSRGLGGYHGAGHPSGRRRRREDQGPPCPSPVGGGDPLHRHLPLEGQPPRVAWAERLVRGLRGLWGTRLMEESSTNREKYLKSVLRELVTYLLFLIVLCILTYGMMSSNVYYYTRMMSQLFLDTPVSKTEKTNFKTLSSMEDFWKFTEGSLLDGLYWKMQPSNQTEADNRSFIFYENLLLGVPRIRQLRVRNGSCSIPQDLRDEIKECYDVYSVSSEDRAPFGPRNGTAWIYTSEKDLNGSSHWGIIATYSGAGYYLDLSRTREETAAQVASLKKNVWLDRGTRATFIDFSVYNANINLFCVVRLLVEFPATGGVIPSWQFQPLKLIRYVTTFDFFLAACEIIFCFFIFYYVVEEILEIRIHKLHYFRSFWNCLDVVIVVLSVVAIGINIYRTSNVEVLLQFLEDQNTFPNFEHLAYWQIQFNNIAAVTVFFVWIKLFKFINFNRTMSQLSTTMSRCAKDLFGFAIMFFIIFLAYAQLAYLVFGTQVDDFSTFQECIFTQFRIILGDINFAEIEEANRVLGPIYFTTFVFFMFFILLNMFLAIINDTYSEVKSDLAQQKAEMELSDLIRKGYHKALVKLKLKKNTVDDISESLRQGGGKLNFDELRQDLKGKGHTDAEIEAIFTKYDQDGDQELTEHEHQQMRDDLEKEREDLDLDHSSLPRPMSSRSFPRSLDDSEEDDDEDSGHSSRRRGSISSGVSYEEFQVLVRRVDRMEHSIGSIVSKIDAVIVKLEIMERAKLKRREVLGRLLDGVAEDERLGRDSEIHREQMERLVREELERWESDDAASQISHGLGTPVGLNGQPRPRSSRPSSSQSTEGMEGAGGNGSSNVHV

B1: Flag-tagged PKD2 (protein, UniProt Q13563 1-968)
chain: T4 sequence
With B1 the binding [1] was “binds” and the binding [2] was “binds”.

B2: endogenous RASSF4 of mouse kidney (protein, UniProt Q8CB96 1-322)
chain: MKEACSSSSHVPVSDSKYILKSELLSLLKTYNCYHEGRSFQLRHREEEGTLIIEGLLNIAWGLRRPIRLQMQDDRERVHLPSATWVPERLSYLQKEASPQDSKVPTEEPGTQPANKAEVSGDSSGALEGEEEEVPQLMRTKSDASCIIQRRSKSRAPSEAQKIRRHRFSINGHFYNHKTSVFTPAYGSVTNVRVNSTMTTQQVLTLLLNKFRVEDGPSEFALYTVHESGEQTKLKDCEYPLISRILHGPCEKIVKIFLMEADLSEEVPHDVAQYIKFEMPVLDSFVEKLKEEEEREIIKLTMKFQALRLTMLQRLEQLVEAK
For B2, the binding [3] was “binds”.

B3: VN-RASSF4 (Venus N-terminal half fused to RASSF4) (protein, UniProt Q9H2L5 1-321)
chain: T1 sequence
With B3 the binding [4] was “binds”.
